{"source": "paper PMC12136788", "binders": {"B1": {"name": "chr14:78183846:78183847:+_ENSG00000119705_ENST00000557342|hu_hu|hu_hu_hu_mus_False|38_98 (ssRNA)", "RNA": "GGGAGUUCUACAGUCCGACGAUCUCUCAGAAAUCUUUCUUUCUUUUAUGUUUGAGCUCCGUGCAAAGCCUUUGCUCUUUGAGCUUGAACGUGGAUCUUUACUCCAUAAAGCACUGUCAGAAAAGGUAAUUUUUUUUUUAAAGACAACAGAGGAUUGAGCAUCA"}, "B2": {"name": "chr10:80924034:80924035:-_ENSMUSG00000034818_ENSMUST00000118763|mus_mus|motif|central (ssRNA)", "RNA": "GGGAGUUCUACAGUCCGACGAUCUUAAAACUGGAACUAUGGCAGCCAUCCGGGGGUUUCUACCUGAUUCGUGGGUUUCCGGAUCGAAGCCAAAAUAGAUAAAGCCCAAAAGACCCAGAUAAUGGACAAAAAACACUGAAGGAUCAACAGAGGAUUGAGCAUCA"}, "B3": {"name": "chr6:11883424:11883425:+_ENSMUSG00000029629_ENSMUST00000115511|mus_hu|FALSE|FALSE (ssRNA)", "RNA": "GGGAGUUCUACAGUCCGACGAUCCUUUUUCUUUCUAGGUCUUUCUCCAUUUUCUUCUUCUUCCUUCUUUUCCAUUUUAAUUAAUUGUUUUUCUGAUGAUAGUACUUCUUCCUCUGCAGAAUUUUUAAGUUGUUCUUCUUUUACCAACAGAGGAUUGAGCAUCA"}, "B4": {"name": "51939381_51939501_5263_3pUTR_ENSMUSG00000020349_ENSMUST00000020608|mouse|control|control (ssRNA)", "RNA": "GGGAGUUCUACAGUCCGACGAUCCCUUCAAUCCCAGCACUCGGGAGGCAGAGACAGGCGGAUUUCUGAGUUUGAGGCCAGCCUGGUCUACAAAGUGAGCUCCAGGACAGCCAGGGCUAUACAGAGAAACCCUGUCUCAAAAAACAACAGAGGAUUGAGCAUCA"}, "B5": {"name": "chrX:50293416:50293417:+_ENSMUSG00000025626_ENSMUST00000078944|mus_mus|motif|central (ssRNA)", "RNA": "GGGAGUUCUACAGUCCGACGAUCUUUCUUCUUAGUCUUUGGAGAUGAGGGCUCCAGUUCAUGCUCAUUAAAACUUUCUUCGGAAUCAGCUUCCGAGUUAUGUGCAGUUUUCUUGUGUUUUCGACAAUAAACCAUGUAAAUCCCCAACAGAGGAUUGAGCAUCA"}, "B6": {"name": "chr14:39627603:39627604:-_ENSG00000182400_ENST00000330149|hu_mus|FALSE|FALSE (ssRNA)", "RNA": "GGGAGUUCUACAGUCCGACGAUCGAACUUCAUGAUGUCUAAUUCAUCCUUGAACCUUGCAGUAUCUUUCGUAAACCUUUCUAUCAGUCCUUGCCCCACUCGGAACCCCAUGCUCUCCAGCUUAGUAACACACCUUCCAUUUUCCAACAGAGGAUUGAGCAUCA"}, "B7": {"name": "chr17:76047126:76047127:+_ENSG00000078687_ENST00000588847|hu_hu|FALSE|FALSE (ssRNA)", "RNA": "GGGAGUUCUACAGUCCGACGAUCUGUCUGUUUCACAGAAGCAGCUCCUCCCCAGUUACUCACAUUGUUGUCUUGGGGUUUGCUAGCCCAGUUCUGUUGGGGGCCAGGUUUUAAAGUCUCCCCCCAGUUUGUACCUGGAUUGGCCAACAGAGGAUUGAGCAUCA"}, "B8": {"name": "chr1:173068877:173068878:-_ENSMUSG00000058076_ENSMUST00000081560|mus_hu|FALSE|FALSE (ssRNA)", "RNA": "GGGAGUUCUACAGUCCGACGAUCGUUCCCAGGGAGUAACAGGGCCGACAUGCCAAAAAGAGAGACCCCUGCACUCAAAGCAAUACCAGUGCCACGGUGGCAGAUGGACAUCGCCAUGGGAAGAGACCAACUGUAGAUAGUAAUCAACAGAGGAUUGAGCAUCA"}, "B9": {"name": "chr7:141441981:141441982:+_ENSG00000106028_ENST00000265304|hu_mus|hu_hu_hu_mus_False|78_78 (ssRNA)", "RNA": "GGGAGUUCUACAGUCCGACGAUCCUCAUGUCUUACAAACUGACGAAAUACCUGUAAUACAGGUCUUCGAAACAUGGCUUCUGUUUUUCUUACAACCUAAUCUUUAGGCUUUUCCUAAAGGAAAGAAAGAAAAGAGAAAAAUGACAACAGAGGAUUGAGCAUCA"}, "B10": {"name": "chr16:20935853:20935854:+_ENSG00000102897_ENST00000219168|hu_hu|motif|central (ssRNA)", "RNA": "GGGAGUUCUACAGUCCGACGAUCAAGGGUCAAAAGACAACAAAAAAGCACACACCAAAAAACCUCACUUUAAGCAAAUCGGUAACUUGAAAAAAAAAAAGCCUAAGAAUAUUCUGAGAGUGGUACAUAGUUUUAUAGUAGCCACAACAGAGGAUUGAGCAUCA"}, "B11": {"name": "chr16:94651144:94651145:+_ENSMUSG00000040785_ENSMUST00000117648|mus_hu|mus_mus_mus_hu_True|48_58 (ssRNA)", "RNA": "GGGAGUUCUACAGUCCGACGAUCAUUUUCUUGAAUCAAGUGGCGAAUAACAUAGUCCACUGCUUCAUUUAGAAAAUUUUUGCUAGAAAAGCAUGUUGUAUAGUCUUCUGUGCUCAAAACUUUCCAAGAAAGCAAUUCUUUGAGCAACAGAGGAUUGAGCAUCA"}, "B12": {"name": "chr2:114393739:114393740:-_ENSMUSG00000057147_ENSMUST00000102542|mus_mus|motif|central (ssRNA)", "RNA": "GGGAGUUCUACAGUCCGACGAUCAUUAGAAGCUAUCAUCUCUCGGAGCAAAUCUUCCUGGUUUCUUUGCCAAAGAUAAGCGGAAGGCUGGAGAUUGAGUCGUUUACAUACAUUUUCUACUCGUCCACGUUGAUAGUCAGAGAGCAACAGAGGAUUGAGCAUCA"}, "B13": {"name": "chr19:16212804:16212805:+_ENSG00000167460_ENST00000300933|hu_mus|hu_hu_hu_mus_False|38_38 (ssRNA)", "RNA": "GGGAGUUCUACAGUCCGACGAUCAACAAUUCUGGAGUGAAGGAAAGAUGUAACAUGGAACAGCAUUAAAGCUCAGUCAGAAGGCACAUGGGCAACAAUGACUAUUUCAGCAUUCUCGCUUGGAAUGCUUAAAGACAAUCUGUUCAACAGAGGAUUGAGCAUCA"}, "B14": {"name": "chr8:117878989:117878990:-_ENSG00000164754_ENST00000297338|hu_hu|hu_hu_hu_mus_True|28_108 (ssRNA)", "RNA": "GGGAGUUCUACAGUCCGACGAUCCCAGAGGCCCUCUUUUACUGAGGACAAAAUGUGCGUAGAACAUUUUUCUUAUUUGCUAUGAAAUAAGAAGAAACCUGGAUCUCCCGCUGGGAGCGGGAGGGGUGGGUGGCCCGGGGAGGGCAACAGAGGAUUGAGCAUCA"}, "B15": {"name": "91030778_91034648_4396_CDS_ENSG00000140575_ENST00000268182|human|control|control (ssRNA)", "RNA": "GGGAGUUCUACAGUCCGACGAUCUACAGAUUUUGACUUUUUCAUCUUGUCAGGUGUUUUGGCAUCACGGAUAGCACGUCUCUGCAUGGCUCUCUGAUGUUCUGCUUCCUGUUCACUGGUGGCUGGUGUUUCUAGGAUUUCAGUCAACAGAGGAUUGAGCAUCA"}, "B16": {"name": "142516462_142516582_550_CDS_ENSMUSG00000004591_ENSMUST00000043812|mouse|control|control (ssRNA)", "RNA": "GGGAGUUCUACAGUCCGACGAUCUUUUUUCAAAAUGUUGUCUACAUAAGCCAAAUUUUUCUUAUCUGUUGUAACUUUCCUCAGGUUUUCAGCUCCUUCUUUGAUUUUCAGUUCUUUCCUUAUUUCUCUCUUUAUUCGAUCCUUCAACAGAGGAUUGAGCAUCA"}, "B17": {"name": "chr3:9412954:9412955:+_ENSG00000134077_ENST00000452837|hu_mus|hu_hu_hu_mus_False|8_108 (ssRNA)", "RNA": "GGGAGUUCUACAGUCCGACGAUCGGUUGAUACAUCCUCUUUGAUGGCUGGAUUUUCAUAAUAGUCCAAGAUAUGUGAAUCUGAAGUGCUGCUGGCAUGCUUUUUCUUACCAUCUUUCUCAUCUGCUUUGACUUCUUGUCCACACAACAGAGGAUUGAGCAUCA"}, "B18": {"name": "chr13:14146135:14146136:-_ENSMUSG00000021302_ENSMUST00000170957|mus_mus|motif|central (ssRNA)", "RNA": "GGGAGUUCUACAGUCCGACGAUCAGUGUAUGCAAAAGAACCUACAUCCUCCAGGUACUGCACACAAUACUUUUUAAUAUCGGUAUUCUCUGUUCUCUGGCGCAGGAUGUUCUGUACCUGGGUGCUUUCUGGCCUUGACCAAAUCAACAGAGGAUUGAGCAUCA"}, "B19": {"name": "chr18:24770415:24770416:+_ENSMUSG00000024271_ENSMUST00000025120|mus_hu|motif|central (ssRNA)", "RNA": "GGGAGUUCUACAGUCCGACGAUCAUAAACAGGUCCUUCAUGGCCUUGAAGAUGCACUGCUUUUAAAAGCUGAUUAUCCUCGGUUUCCCAGUGAAUCACUUGAUUAUCAGAUCCUCCAGAAACUAAUUCAGUAGAAGGGGAGCCCAACAGAGGAUUGAGCAUCA"}, "B20": {"name": "chr9:88635815:88635816:+_ENSG00000135040_ENST00000361671|hu_mus|FALSE|FALSE (ssRNA)", "RNA": "GGGAGUUCUACAGUCCGACGAUCUCCUCCUGCUAAGAGCUUCAUAACCACAAAGUUGGGCUUGGCAACCUUCAGGAUUCUACUGACCUCACGGUCUGGAUUGGGGAUAUUUUCAAGGAUCAUUUUUGCCUGCUGAAAGUGCUUCAACAGAGGAUUGAGCAUCA"}, "B21": {"name": "chr4:132326513:132326514:+_ENSMUSG00000028884_ENSMUST00000102561|mus_mus|FALSE|FALSE (ssRNA)", "RNA": "GGGAGUUCUACAGUCCGACGAUCAAUAGUGACCUGUGAAAUCUCGACAUCUCCAAUUCUGAACACUUCAUCAGUCAGAGUAGCAGAAAGCAGCUGGGAUAUGGUACAGGGCACAAUAUGCUGGGCUCGGACUCUCGAUUUCUUCAACAGAGGAUUGAGCAUCA"}, "B22": {"name": "2886273_2895739_470_CDS_ENSG00000087274_ENST00000398129|human|control|control (ssRNA)", "RNA": "GGGAGUUCUACAGUCCGACGAUCUGUGAUAUGAUUGUAGAUAAGCUGAGACCACCCAAAGAGAUCUGCUAGUCUAUAAAACGCUGCCAAUUUACACCGUAAUAACUUCUCUCCUUUGUCAUACGCAAUAGAAUCAGAUCCUCUCAACAGAGGAUUGAGCAUCA"}}, "note": "Some of the results follow.", "data": [{"molecular_target": "T1, UNK ZnF1-3 (human, UniProt Q9C0B0 31-174)", "T1 sequence": "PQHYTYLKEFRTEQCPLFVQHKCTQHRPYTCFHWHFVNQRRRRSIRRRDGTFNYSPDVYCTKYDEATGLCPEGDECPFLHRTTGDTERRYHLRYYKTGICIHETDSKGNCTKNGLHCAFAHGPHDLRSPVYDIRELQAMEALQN", "experiment": "nsRBNS (natural sequence RNA bind-n-seq); RBNS binding buffer (assumed for nsRBNS): 25 mM Tris pH 7.5, 150 mM KCl, 3 mM MgCl2, 0.01% Triton X-100, 500 ug/ml BSA, 20 U/ml SUPERase-In, 4 C; UNK is unkempt and MSI1 is Musashi-1; names of the RNAs are library labels; protein concentration not given here; high values mean tight binding", "units": {"binding signal": "enrichment R"}, "values": [{"binder": "B1", "binding signal": 0.785}, {"binder": "B2", "binding signal": 1.58}, {"binder": "B3", "binding signal": 0.28}, {"binder": "B4", "binding signal": 0.757}, {"binder": "B5", "binding signal": 0.543}, {"binder": "B6", "binding signal": 0.804}, {"binder": "B7", "binding signal": 0.974}, {"binder": "B8", "binding signal": 1.02}, {"binder": "B9", "binding signal": 0.639}, {"binder": "B10", "binding signal": 2.63}, {"binder": "B11", "binding signal": 0.396}, {"binder": "B12", "binding signal": 0.968}, {"binder": "B13", "binding signal": 1.16}, {"binder": "B14", "binding signal": 1.22}, {"binder": "B15", "binding signal": 0.352}, {"binder": "B16", "binding signal": 0.194}, {"binder": "B17", "binding signal": 0.388}, {"binder": "B18", "binding signal": 0.571}, {"binder": "B19", "binding signal": 0.853}, {"binder": "B20", "binding signal": 1.18}, {"binder": "B21", "binding signal": 0.931}, {"binder": "B22", "binding signal": 1.29}]}]}
